The values that follow come from publication PMC10442856, “Site-Specific Glycation of Human Heat Shock Protein (Hsp27) Enhances Its Chaperone Activity” (ACS Chemical Biology, 2023).

The data set deals with the molecule itself. In words: SEC; Superdex-200 column; folded (refolded in 40 mM HEPES·KOH pH 7.5, ~1 mg/mL, 25 °C, 3 h) Hsp27 samples; calibrated with standard proteins. Background: SEC sorts molecules by how far they enter the pores of the column.

B1: semisynthetic wild type human heat shock protein 27 (Hsp27) 8a (natural protein)
chain: not shown
notes: human small heat shock protein Hsp27, […] ([…] synthetic, […] recombinant); Cys32 used for ligation turned back to Ala32 by desulfurization, native Cys137 turned to Ala at the same time; The His tag stood on the recombinant fusion construct 4 of segment […] and was removed by TEV protease before ligation; also called WT 8a; WT variant 8a; not shown: His tag, N-terminal, cleaved
On to B1, for which the binding result is given as “binds”.
